Structures can show the parent of a compound that is named as a salt. ± gives the standard deviation of the averaged measurements. The full ranking holds about 2,600 compounds; the median of “total cell number (DAPI+ nuclei) relative to DMSO vehicle control” is about -1.4, and the lowest 2% start at about -23. The list shows a part of the results.

The experiment concerns jimpy (Plp1 jimpy) mouse iPSC-derived oligodendrocyte progenitor cells. Kind of experiment: total cell number (DAPI+ nuclei) relative to DMSO vehicle control (SDs above negative control mean); higher = more surviving cells. As to conditions: 10 µM; 3 days.
Regarding `CCCCCCCCCC[Si](C)(C)CCC(=O)NC(Cc1ccc(C)cc1)c1ccccc1` (centres undefined) [Sandoz 58-035], the total cell number turned out to be 0.626.

For the compound `COC(=O)Nc1ccc(-c2nc(N3CCOCC3)c3cnn(C4CCN(C(=O)OC)CC4)c3n2)cc1`, the total cell number is -18.1.

The compound `NS(=O)(=O)c1cc(Cl)c(Cl)c(S(N)(=O)=O)c1` [Dichlorphenamide] registered a total cell number of -0.368.

In turn, `CS(=O)(=O)c1ccc(-c2cnc(N)c(C(=O)Nc3ccccc3)n2)cc1` gave a total cell number of -8.12.

Compound `COc1c(C)c2c(c(O)c1C/C=C(\C)CCC(=O)O)C(=O)OC2` [Mycophenolic acid] came in with a total cell number of -12.1.

Regarding `O=C(Oc1ccccc1C(=O)O)c1ccccc1O` [Sasapyrine], the total cell number is -0.0603.

The compound `O=C(O)C1=CO[C@@H](O[C@@H]2O[C@H](CO)[C@@H](O)[C@H](O)[C@H]2O)[C@@H]2C(CO)=CC[C@H]12` [Geniposidic acid] registered a total cell number of -0.368.

The compound `C[C@H](Cc1cc2c(c(C(N)=O)c1)N(CCCO)CC2)NCCOc1ccccc1OCC(F)(F)F` [Silodosin] gave a total cell number of -11.4.

The compound `CN(C)CCOc1ccc(-c2nc(-c3ccncc3)c(-c3ccc4c(c3)CC/C4=N\O)[nH]2)cc1` came in with a total cell number of -14.8.

For the compound `CCCC(CCC)C(=O)O[C@H]1C[C@H]2CC[C@@H](C1)[N+]2(C)C` [Anisotropine methyl bromide], the total cell number amounted to 12.1.

Turning to `O=C(NCCN1CCOCC1)c1ccc(Cl)cc1`, the total cell number is 1.72.

As to `O=C(NCCN1CCOCC1)c1ccc(Cl)cc1` [Moclobemide], the total cell number was -0.958.

`Cc1cc(Cl)ccc1OCCCC(=O)NO` [Droxinostat] yielded a total cell number of -4.36 ± 0.95.

Compound `Cc1ccc(-n2sc(=O)n(Cc3ccc(F)cc3)c2=O)cc1` registered a total cell number of -4.28.

Compound `O=C(c1ccc(/C=C/c2n[nH]c3ccccc23)cc1)N1CCNCC1` showed a total cell number of -13.2.

Compound `C/C(=C\C(=O)Nc1ccccc1C(=O)O)c1ccc2ccccc2c1` returned a total cell number of -0.556.

For the compound `CC(=O)CCCCn1c(=O)c2c(ncn2C)n(C)c1=O` [Pentoxifylline], the total cell number was -1.04.

Regarding `O=C(O)C=C1CCCc2ccccc2C1O` (centres undefined), the total cell number is -0.492.

As to `COc1cccc(Nc2c(C(N)=O)cnc3c(C)cc(S(=O)(=O)c4cccc(C(=O)N(C)C)c4)cc23)c1`, the total cell number turned out to be 1.06.

`Nc1c(CC(=O)O)cccc1C(=O)c1ccc(Br)cc1` [Bromfenac Sodium] displayed a total cell number of 0.615.

`OCCN1CCN(CCCN2c3ccccc3C=Cc3ccccc32)CC1` [Opipramol dihydrochloride] yielded a total cell number of -1.47.

As to `CC(C)(C)c1nc(-c2cccc(NS(=O)(=O)c3c(F)cccc3F)c2F)c(-c2ccnc(N)n2)s1`, the total cell number was determined as 0.421.

For the compound `C[C@H]1O[C@@H](n2cc(F)c(=O)[nH]c2=O)[C@H](O)[C@@H]1O` [Doxifluridine], the total cell number was -1.22.

In turn, `C[C@H]1O[C@@H](n2cc(F)c(=O)[nH]c2=O)[C@H](O)[C@@H]1O` [5-fluoro-5'-deoxyuridine] registered a total cell number of -1.33.

Consider `C[n+]1cccc(C(N)=O)c1` [1-Methylnicotinamide chloride], for which the total cell number is 0.293.

In turn, `Clc1ccc(C(c2ccc(Cl)cc2)[n+]2ccn(CC(OCc3ccc(Cl)cc3Cl)c3ccc(Cl)cc3Cl)c2)cc1` (centres undefined) [Calmidazolium chloride] registered a total cell number of -12.9.

On to `CC(C)NC[C@H](O)COc1cccc2ccccc12` [(S)-Propranolol hydrochloride], for which the total cell number was -2.92.

The compound `O=C(O)CCCCC(CCSCc1ccccc1)SCc1ccccc1` (centres undefined) gave a total cell number of 0.934.

As to `CC1(C)CC[C@]2(C(=O)O)CC[C@]3(C)C(=CC[C@@H]4[C@@]5(C)CC[C@H](O)C(C)(C)[C@@H]5CC[C@]43C)[C@@H]2C1` [Oleanolic Acid], the total cell number is -2.01.

As to `O=c1c(-c2ccc(O)cc2)coc2cc(O)ccc12` [Daidzein], the total cell number is -0.0611 ± 1.3.

The compound `C[C@@H](O)[C@H]1C(=O)N2C(C(=O)O)=C(S[C@@H]3CN[C@H](C(=O)N(C)C)C3)[C@H](C)[C@H]12` [Meropenem] returned a total cell number of 1.87.

For `CCCCCCCC/C=C\CCCCCCCC(=O)NCCO` [N-Oleoylethanolamine], the total cell number is -2.13.

Take `CC(=O)O[C@H]1C[C@@H]2CC[C@@H]3[C@H](CC[C@@]4(C)[C@H]3C[C@H]([N+]3(C)CCCCC3)[C@@H]4OC(C)=O)[C@@]2(C)C[C@@H]1N1CCCCC1` [Vecuronium Bromide]: the total cell number was -0.34.

`CC1(C)O[C@@H]2C[C@H]3[C@@H]4CCC5=CC(=O)CC[C@]5(C)[C@@]4(F)[C@@H](O)C[C@]3(C)[C@]2(C(=O)CCl)O1` [Halcinonide] displayed a total cell number of 3.22.

Take `C[C@]12C=CC(=O)C=C1CC[C@H]1[C@@H]3C[C@@H](O)[C@](O)(C(=O)CO)[C@@]3(C)C[C@H](O)[C@@]12F` [Triamcinolone]: the total cell number is -0.473 ± 1.1.

Compound `CCN(CC)C(=O)/C(C#N)=C/c1cc(O)c(O)c([N+](=O)[O-])c1` [Entacapone] registered a total cell number of -0.656.

In the case of `C[C@@H]1O[C@@H](OC[C@H]2O[C@@H](Oc3c(-c4ccc(OCCO)c(OCCO)c4)oc4cc(OCCO)cc(O)c4c3=O)[C@H](O)[C@@H](O)[C@@H]2O)[C@H](O)[C@H](O)[C@H]1O` [Troxerutin], the total cell number stood at 1.54.

On to `COc1ccc2c(c1)c(CC(=O)N1CCOCC1)c(C)n2C(=O)c1ccc(Cl)cc1`, for which the total cell number was -2.83.

As to `Cc1coc2c1C(=O)C(=O)c1c-2ccc2c1CCCC2(C)C` [Tanshinone IIA], the total cell number is -0.251.

Take `CCc1c(O)cc(O)c(C(=O)c2ccc(OCCN3CCOCC3)c(OC)c2)c1CC(=O)N(CCOC)CCOC`: the total cell number is -12.2.

For the compound `CNCCCC12CCC(c3ccccc31)c1ccccc12` [Maprotiline hydrochloride], the total cell number is -7.26.

The compound `CNCCCC12CCC(c3ccccc31)c1ccccc12` [Maprotiline HCl] displayed a total cell number of -10.

For `O=C1Cc2c([nH]c3ccc(Br)cc23)-c2ccccc2N1` [Kenpaullone], the total cell number is -2.52.

`CC[C@H]1OC(=O)C[C@@H](O)[C@H](C)[C@@H](O[C@@H]2O[C@H](C)[C@@H](O)[C@H](N(C)C)[C@H]2O)[C@@H](CCN2C[C@H](C)C[C@H](C)C2)C[C@@H](C)C(=O)/C=C/C(C)=C/[C@@H]1CO[C@@H]1O[C@H](C)[C@@H](O)[C@@H](OC)[C@H]1OC` [Tilmicosin]: the total cell number is -3.95.

`CCCCCCC(=O)OC1CC(C)(C)NC(C)(C)C1` [TMPH hydrochloride] had a total cell number of 1.35.

In turn, `Oc1cc2c(cc1O)CN(C(=S)NCCc1ccc(Cl)cc1)CCC2` [Capsazepine] yielded a total cell number of -8.8.

`Cc1cc(Cn2cnc3c2C[C@@H](C(=O)O)N(C(=O)C(c2ccccc2)c2ccccc2)C3)ccc1N`: the total cell number is -6.04.

In the case of `Nc1nc(Cl)nc2c1ncn2[C@@H]1O[C@H](COP(=O)(O)OP(=O)(O)OP(=O)(O)O)[C@H](O)C1O` (some centres undefined) [2-Chloroadenosine triphosphate tetrasodium], the total cell number is -2.1.

Consider `NC[C@@H](O)c1ccc(O)c(O)c1` [L(-)-Norepinephrine bitartrate], for which the total cell number worked out at 0.337.

Consider `CN(C)Cc1cccc(N=C(c2ccccc2)c2c(O)[nH]c3cc(C(=O)N(C)C)ccc23)c1`, for which the total cell number was -11.8.

`Nc1nc2c(ncn2COCCO)c(=O)[nH]1` [Acyclovir] yielded a total cell number of -2.02.

On to `Nc1nc2c(ncn2COCCO)c(=O)[nH]1` [Aciclovir], for which the total cell number is -1.83.

As for `Cc1cc(NC2CCCCC2)nc(-n2nc(C)cc2C)n1`, the total cell number is -3.65.

Regarding `NCCSSCCN` [Cystamine dihydrochloride], the total cell number is -0.337.

Compound `CS(=O)(=O)N1CCN(Cc2cc3nc(-c4cccc5[nH]ncc45)nc(N4CCOCC4)c3s2)CC1` displayed a total cell number of -23.7.

Turning to `COc1ccc2[nH]c([S@@+]([O-])Cc3ncc(C)c(OC)c3C)nc2c1` [Esomeprazole magnesium dihydrate], the total cell number is -0.604.

Compound `COc1ccc2[nH]c([S@@+]([O-])Cc3ncc(C)c(OC)c3C)nc2c1` [Esomeprazole Sodium] showed a total cell number of 1.8.

Compound `CCCCCN(CCCCC)C(=O)C(CCC(=O)O)NC(=O)c1ccc(Cl)c(Cl)c1` (centres undefined) [Lorglumide sodium] came in with a total cell number of -0.33.

With `CC1(C)CCC[C@]2(C)[C@H]3CC(=O)O[C@]3(C)CC[C@@H]12` [Sclareolide], the total cell number is 2.74.

As to `COc1c(N2C[C@@H]3CCCN[C@@H]3C2)c(F)cc2c(=O)c(C(=O)O)cn(C3CC3)c12` [Moxifloxacin HCl], the total cell number worked out at 2.57.

For `COc1ccc(C(=O)CC(=O)c2ccc(C(C)(C)C)cc2)cc1` [Avobenzone], the total cell number is -0.688.

Compound `CCOC(=O)C1=C(C)NC(C)=C(C(=O)OCC)C1c1ccccc1/C=C/C(=O)OC(C)(C)C` [Lacidipine] registered a total cell number of -8.62.

Turning to `Cn1c(=O)n(-c2ccc(C(C)(C)C#N)cc2)c2c3cc(-c4cnc5ccccc5c4)ccc3ncc21` [BEZ235 (NVP-BEZ235, Dactolisib)], the total cell number was -22.1.

Compound `O=C(O)C(Cc1c[nH]c2ccccc12)N1C(=O)c2ccccc2C1=O` (centres undefined) displayed a total cell number of -0.852.

The compound `CCOc1cc(CC(=O)N[C@@H](CC(C)C)c2ccccc2N2CCCCC2)ccc1C(=O)O` [Repaglinide] came in with a total cell number of 1.39.

With `NC(CCCP(=O)(O)O)C(=O)O` (stereo not drawn) [D(-)-2-Amino-5-phosphonopentanoic acid], the total cell number was -0.967.

`C#C[C@]1(O)CC[C@H]2[C@@H]3CCc4cc(O)ccc4[C@H]3CC[C@@]21C` [Ethinyl Estradiol] displayed a total cell number of -1.62.

As to `O=S(=O)(c1ccccc1)N(CC(F)(F)F)c1ccc(C(O)(C(F)(F)F)C(F)(F)F)cc1`, the total cell number was 2.96.

With `O=C(O)c1ccc(N2C(=O)/C(=C\c3ccc(-c4ccc([N+](=O)[O-])cc4)o3)C=C2c2ccccc2)cc1`, the total cell number is 0.469.

For `COC(=O)N[C@H](C(=O)N1CCC[C@H]1c1ncc(-c2ccc(-c3ccc(-c4cnc([C@@H]5CCCN5C(=O)[C@@H](NC(=O)OC)C(C)C)[nH]4)cc3)cc2)[nH]1)C(C)C`, the total cell number was -5.73.

`CCCCN(Cc1ccc(C(=O)NO)cc1)C(=O)Nc1ccccc1` [Nexturastat A] registered a total cell number of -11.5.

Take `Nc1nc(N)c2nc(CNc3ccc(C(=O)N[C@@H](CCC(=O)O)C(=O)O)cc3)cnc2n1` [Aminopterin]: the total cell number is -2.62.

Regarding `CC(C(=O)O)c1cccc(C(=O)c2ccccc2)c1` (centres undefined) [Ketoprofen], the total cell number was -0.826 ± 2.

Compound `CC[C@H](NC(=O)c1c(C)c(-c2ccccc2)nc2ccccc12)c1ccccc1` displayed a total cell number of -1.73.

For the origin of these results see the supplement of paper PMC6135742.
